According to PubChem BioAssay AID624296 (National Center for Advancing Translational Sciences (NCATS), 2012):
In all, about 350,000 compounds went through this assay and about 9,900 (2.8%) were called active. This list was built around the results that the source calls inconclusive (neither active nor inactive); the mix of calls is not that of the screen. The call rests on the fitted dose curve; in most records, active means well fitted activation curve with a large enough effect; inconclusive means small, poorly fitted or top-dose-only effect; inactive means no such curve, though single readings can be large or run the other way. No potency is given beside an inconclusive call; the fits are too rough.

assay: A quantitative high throughput screen for small molecules that induce DNA re-replication in MCF 10a normal breast cells.; further: nearly all actives have a fitted effect of over 50% in size; on activity, positive = re-replication: % of control where 0% means no effect; settings: MCF 10A DNA re-replication, Hoechst nuclear intensity, 48 h; activity, positive = re-replication: at 46.1 µM (top of the series)
Potency means the concentration at half of the fitted maximal effect; tags describe the fitted curve by direction and shape.

SMILES | Potency | activity, positive = re-replication
O=C(O)c1cc(S(=O)(=O)Nc2cc(Cl)ccc2Oc2ccccc2)ccc1O | inconclusive [activator, single point] | 
Cn1cc(CC(=O)NCCN2CCOCC2)c2ccccc21 |  | inactive: 14.9%
C=CCN1c2ccccc2[C@]23C[C@@H](C(=O)OC)N(C(=O)c4cc(C)oc4C)C2=NC(C(=O)OC)=C(C(=O)OC)[C@H]13 |  | inactive: 0.209%
O=c1[nH]c2ccccc2nc1N1CCOCC1 |  | inactive: -3.76%
CC1CCCN(CCOCCOc2ccc(Br)cc2Cl)C1 (configuration not stated) | inconclusive [activator, partial curve, poor fit] | 
COC(=O)c1cccc(Cn2c(Cl)c(/C=N/NC(=O)c3ccco3)sc2=O)c1 | inconclusive [activator, single point] | 
O=S1(=O)CCC(SCc2nc3sccn3c2Br)C1 (configuration not stated) | inconclusive [activator, single point] | 
CC1Cc2ccccc2N1C(=O)COc1cccc(-n2cnnn2)c1 (configuration not stated) |  | inactive: 13.8%
O=C(NCc1ccco1)c1nc2c(nnn2Cc2ccccc2Cl)c(=O)[nH]1 |  | inactive: 7.41%
CCOC(=O)Nc1ccc2c(c1)N(C(=O)CCN(C)C)c1ccccc1S2 | inconclusive [activator, single point] | 
Clc1ccc(CCNc2nc3ccccc3s2)cc1 | inconclusive [activator, single point] | 
CN(C)c1ccc(Nc2c3c4c(cccc4n(C)c2=O)C(=O)c2ccccc2-3)cc1 | inconclusive [activator, full curve] | 
CC1(C)N([O-])C2=C(c3ccccc3C2=O)[N+](=O)C1(C)C | inconclusive [activator, full curve, poor fit] | 
COc1ccc(NC(C)=O)cc1S(=O)(=O)N1CCc2ccccc21 | inconclusive [activator, partial curve, poor fit] | 
CCOc1cc(NC(=O)c2ccccn2)c(OCC)cc1NC(=O)c1ccccc1 | inconclusive [activator, full curve, poor fit] | 
CN1C(=O)C(Cl)(Cl)C(=O)c2ccccc21 | inconclusive [activator, single point] | 
CCc1ccc(O)c(-c2cc(C(=O)Nc3cccnc3)[nH]n2)c1 |  | inactive: 8.53%
COC(=O)C(=O)Nc1nnc(COc2ccccc2)s1 | inconclusive [activator, partial curve, poor fit] | 
COc1cc(NC(=O)COc2ccc(Cl)cc2)ccc1-c1cc2ccccc2oc1=O | active: 7.31 µM | 
CCOc1ccccc1NC(=O)C(Sc1nnc2ccccn12)c1ccccc1 (configuration not stated) |  | inactive: 2.67%
O=C(/C=C/c1ccccc1F)c1cccc([N+](=O)[O-])c1 | active: 20.6 µM | 
Cc1ccc(CN(C)C(=O)c2cccc(S(=O)(=O)N3CCN(c4ccccc4)CC3)c2)cc1 |  | inactive: -0.858%
NC(=O)COc1ccccc1 |  | inactive: -6.14%
CCOC(=O)C(C)(C)N(Cc1ccc(C)cc1)S(=O)(=O)c1ccc(Cl)c([N+](=O)[O-])c1 | active: 11.6 µM | 

SMILES | Potency | activity, positive = re-replication
CCC(C)N(C)Cc1cccc(C2(O)CCN(S(=O)(=O)c3ccc(F)c(C)c3)CC2)c1 (configuration not stated) | active: 14.6 µM | 
c1ccc(-c2csc(N3CCc4ccccc4C3)n2)cc1 | inconclusive [activator, partial curve, poor fit] | 
CC(C(=O)Nc1ccccc1)C(=O)Nc1ccccc1 | inconclusive [activator, full curve, poor fit] | 
CCOC(=O)c1c(NC(=O)Cn2nc(C(F)(F)F)cc2C)sc2c1CCC2 | inconclusive [activator, partial curve] | 
CCc1ccc2nc3sc(C(=O)O)cc3cc2c1 | inconclusive [activator, single point] | 
CON(C)C(=O)CC(CNC(=O)OC(C)(C)C)c1ccc(Cl)cc1 (configuration not stated) |  | inactive: 4.88%
CN(C(=O)CCl)C1CCCc2ccccc21 (configuration not stated) | inconclusive [activator, full curve, poor fit] | 
O=c1[nH]c(-c2ccco2)nc2sc3c(c12)CCCC3 |  | inactive: -6.37%
Cc1ccc(S(=O)(=O)N(C)C)cc1NC(=O)C1CCCCN1S(=O)(=O)c1ccccc1 (configuration not stated) | inconclusive [activator, partial curve, poor fit] | 
COc1ccc(-c2c[n+]3c(n2-c2ccc(C)cc2)CCCCC3)cc1 |  | inactive: -2.97%
COc1ccccc1N(C(=O)c1snc(C(N)=O)c1N)C(C(=O)NC1CCCC1)c1ccc2ncccc2c1 (configuration not stated) | inconclusive [activator, single point] | 
O=C(CSc1nnnn1-c1cccc(O)c1)NC1CC1 |  | inactive: 3.39%
NC(=S)N/N=C/c1ccc(/C=N/NC(N)=S)cc1 | inconclusive [activator, single point] | 
COC(=O)c1cc(O)cc(OC)c1C(=O)c1c(O)cc(C)cc1O | inconclusive [activator, single point] | 
O=C(/C=C\c1cn(-c2ccccc2)nc1-c1ccc2c(c1)OCCO2)N1CCOCC1 | active: 18.4 µM | 
Cc1ccc(N(C)S(=O)(=O)c2cccc(C(=O)Nc3nc4ccccc4[nH]3)c2)cc1 | inconclusive [activator, single point] | 
Nc1cc(C(F)(F)F)ccc1OCC1CCCO1 (configuration not stated) |  | inactive: -8.56%
COCCNC(=S)Nc1ccc(S(=O)(=O)Nc2ncccn2)cc1 |  | inactive: 6.64%
C=CCn1nc([N+](=O)[O-])nc1Sc1cccc2cccnc12 | inconclusive [activator, single point] | 
CCCCc1nc(NCCNC(=O)c2ccccc2)c(C#N)c2c1CSC(C)(C)C2 | inconclusive [activator, single point] | 
CC(C)CN1C(=O)C(=O)N(CC(=O)N(C)CC(=O)Nc2ccc(Cl)c(C(F)(F)F)c2)C1=O | inconclusive [activator, partial curve, poor fit] | 
Cc1ccc(S(=O)(=O)NNc2nnc(C)c(=O)[nH]2)cc1 | inconclusive [activator, full curve, poor fit] | 
Cc1cccc(C(=O)Nc2ccc(C(=O)Nc3ccc(O)cc3)cc2)c1 | active: 14.6 µM | 
O=C(CSC1=Nc2ccccc2C2=NC(c3ccccc3)C(=O)N12)NC1CCCCC1 (configuration not stated) | inconclusive [activator, partial curve, poor fit] | 

SMILES | Potency | activity, positive = re-replication
Cc1[nH]c(=O)c(C#N)c2c1COC(C)(C)C2 | inconclusive [activator, single point] | 
CNc1c2cccc(C)c2nc2c(C(=O)NCCN(C)C)cccc12 |  | inactive: -10.6%
CC(C)(C)c1ccc(N2C(=O)CSC2c2cccnc2)cc1 (configuration not stated) | active: 2.31 µM | 
O=C(COC(=O)/C=C/c1cccs1)Nc1ccc2ccccc2c1 | inconclusive [activator, single point] | 
COc1ccccc1-n1c(SCC(=O)N(C)C)nnc1-c1ccco1 | inconclusive [activator, partial curve, poor fit] | 
COc1ccc(C(=O)Nc2ccccc2C(=O)N/N=C/c2ccccn2)cc1OC | inconclusive [activator, partial curve] | 
CC(C)Sc1cc(N2CCOCC2)nc(-c2ccc(Cl)cc2)n1 | inconclusive [activator, single point] | 
CSc1ccc(/C=N/NC(=O)CN2CCN(Cc3ccc(C)cc3)CC2)cc1 |  | inactive: 5.61%
CC(=O)Nc1ccc(NC(=O)c2oc3cc(C)c(C)cc3c2C)cc1 | inconclusive [activator, single point] | 
CC(=O)Nc1ccc(SCC(=O)c2c(N)n(Cc3ccccc3)c(=O)n(C)c2=O)cc1 |  | inactive: 16.6%
COc1cc(/C=C/C(=O)c2ccccc2O)cc(OC)c1OC | inconclusive [activator, full curve, poor fit] | 
COc1ccc(C=NNC(=S)NN=Cc2ccc(OC)c(OC)c2)cc1OC | inconclusive [activator, partial curve, poor fit] | 
Cc1ccc(CNC(=O)c2cn(C)c(=O)c3c2c2ccccc2n3C)o1 | inconclusive [activator, single point] | 
C=C(C)CC1Nc2ccccc2NC1CC(=C)C (configuration not stated) | inconclusive [activator, partial curve, poor fit] | 
COc1ccc(C2CCCN2C(=O)Nc2cccc(C(C)=O)c2)cc1OC (configuration not stated) |  | inactive: 16.8%
O=C(Nc1ccccc1C(F)(F)F)NC1(C(=O)N2CCOCC2)CCCCC1 | inconclusive [activator, single point] | 
O=C(CC1C(=O)NCCN1C1CCCC1)NCc1cccc(OC(F)(F)F)c1 (configuration not stated) | inconclusive [activator, partial curve, poor fit] | 
COc1ccccc1N1CCN(C(=O)CCCC2=NS(=O)(=O)c3ccccc3N2)CC1 |  | inactive: 1.98%
O=c1c2ccc([N+](=O)[O-])cc2ncn1Cc1ccccc1C(F)(F)F |  | inactive: 4.96%
c1ccc(C2=Nc3cccnc3C(c3ccccc3)=NN2)cc1 | inconclusive [activator, single point] | 
CCc1cccc(OCC(=O)Nc2ccc(C)c(S(=O)(=O)N3CCCCCC3)c2)c1 |  | inactive: -27.2%
C/C(=N\NC(=O)c1nnn(-c2nonc2N)c1CN(C)c1ccccc1)c1ccccn1 | inconclusive [activator, full curve, poor fit] | 
Cc1nn(-c2ccccc2)c(NC(=O)c2cccs2)c(-c2ccccc2)c1=O |  | inactive: 1.56%
Oc1ccc(/C=N/N2CCN(C3c4ccccc4-c4ccccc43)CC2)c(O)c1 | active: 6.51 µM | 
